Reference: patent US7514257B2, “Zinc finger transcription factor differentiation proteins” (ToolGen, Inc., priority 2001, dated 2009)

B1: A11: random chimeric ZFP from the library (protein)
chain: MVYPYDVPDYAELPPKKKRKVGIRIPGEKPFQCKTCQRKFSRSDHLKTHTRTHTGEKPYVCSKCGKAFTQSSNLTVHQKIHTGEKPYECHDCGKSFRQSTHLTRHRRIHTGEKPYKCHQCGKAFIQSFNLRRHERTHTGEKAAAKFVSVTFEDVAVLFTRDEWKKLDLSQRSLYREVMLENYSNLASMAGFLFTKPKVISLLQQGEDPW
modifications: plasmid sequence
notes: random chimeric ZFP from the library
B2: D01: random chimeric ZFP from the library (protein)
chain: MVYPYDVPDYAELPPKKKRKVGIRIPGEKPYECDHCGKSFSQSSHLNVHKRTHTGEKPYMCSECGRGFSQKSNLIIHQRTHTGEKPYECHDCGKSFRQSTHLTRHRRIHTGEKPYKCKQCGKAFGCPSNLRRHGRTHTGEKAAAKFVSVTFEDVAVLFTRDEWKKLDLSQRSLYREVMLENYSNLASMAGFLFTKPKVISLLQQGEDPW
modifications: plasmid sequence
notes: as for B1
B3: D10: random chimeric ZFP from the library (protein)
chain: MVYPYDVPDYAELPPKKKRKVGIRIPGEKPYECDHCGKSFSQSSHLNVHKRTHTGEKPYRCEECGKAFRWPSNLTRHKRIHTGEKPYRCEECGKAFRWPSNLTRHKRIHTGEKPFACPECPKRFMRSDNLTQHIKTHTGEKAAAKFVSVTFEDVAVLFTRDEWKKLDLSQRSLYREVMLENYSNLASMAGFLFTKPKVISLLQQGEDPW
modifications: plasmid sequence
notes: as for B1
B4: F02: random chimeric ZFP from the library (protein)
chain: MVYPYDVPDYAELPPKKKRKVGIRIPGEKPYSCGICGKSFSDSSAKRRHCILHTGEKPYVCDVEGCTWKFARSDKLNRHKKRHTGEKPYVCDVEGCTWKFARSDELNRHKKRHTGEKPYECHDCGKSFRQSTHLTRHRRIHTGEKAAAKFVSVTFEDVAVLFTRDEWKKLDLSQRSLYREVMLENYSNLASMAGFLFTKPKVISLLQQGEDPW
modifications: plasmid sequence
notes: as for B1

tested on: SV40-SEAP reporter (pSEAP2-control); assay: SEAP assay, SV40-SEAP reporter in 293 cells; format: cell-based, human; details: SEAP reporter activity, three days after transfection
Procedure: Human embryonic kidney 293 cells were cultured with 100 μl of DMEM with 10% of FBS in a humidified atmosphere containing 95% air and 5% CO2 and seeded in wells of a 96 well plates 1 day ahead of transfection. The plasmids were isolated from individual colonies of each library separately and transfected into 293 cells LIPOFECTAMINE PLUS™ (Invitrogen) as recommended by the manufacturer. For MTT assay, 50 ng of plasmids containing zinc finger protein gene fused to the functional domains were transfected into cells cultured at 5·10^3 cells/well. For the SEAP assay, 10 ng of pSEAP2-control (Clontech) plasmid was co-transfected with 50 ng of plasmids containing zinc finger protein gene fused to the functional domains into cells cultured at 1·10^4 cells/well. The transfected cells were incubated at 37° C. for three days before assays.
Three days after transfection, medium was transferred to the new tubes and heated for 30 minutes at 65° C. to inactivate the endogenous alkaline phosphatase. 25 μl of medium was mixed with the same volume of 2×SEAP assay buffer (2 M Diethanolamine (pH 9.8) 10 ml, 1 M MgCl2 10 μl, 1 M homoarginine 200 μl, pNitro phenyl phosphate 44.52 mg). Absorbance at 405 nm was measured after the indicated incubation times at 37° C.
We tested whether library nucleic acids could alter expression of a heterologous nucleic acid. SEAP (secretory alkaline phosphatase) was used as a reporter protein to test whether a ZFP can affect amount of foreign protein produced intracellularly.

In order of falling “Absorbance (405 nm)” value:
1. B2  0.17
2. B1  0.15
3. B3  0.15
4. B4  0.13
